Test results reported in US20240043560A1.

Biological target: full-length human CD28 (hCD28, amino acids M1 to S220, accession #P10747) on engineered reporter T-cells (human) (UniProt P10747)
Assay: cell-based or functional assay

B1: mAb14216P2 (antibody, from a related filing, V domains shown, part only)
VH: EVQLVESGGGLVQPGGSLRLSCAASGFTFSRNNMHWVRQAPGKGLEYVSGISSNGGRTYYADSVKGRFTISRDNSKNTLYLQMGGLRAADMAVYFCTRDDELLSFDYWGQGTLVTVSS
VL: [sequence of about 100 residues omitted]
  Fold induction, luciferase activity in engineered reporter T-cells with HEK293/hCD20, absence of TCR stimulation: 2.8 fold
  Fold induction, luciferase activity in engineered reporter T-cells with HEK293/hCD20, presence of TCR stimulation: 3.26 fold
  Fold induction, luciferase activity in engineered reporter T-cells with HEK293/hCD20/hPSMA, absence of TCR stimulation: 3.95 fold
  Fold induction, luciferase activity in engineered reporter T-cells with HEK293/hCD20/hPSMA, presence of TCR stimulation: 3.15 fold
